In PubChem BioAssay AID1645882 (National Center for Advancing Translational Sciences (NCATS), 2021):
About 120 (0.75%) of roughly 16,000 compounds were called active. Another 4% or so got no clear call; they are omitted. The call rests on the fitted dose curve; in most records, active means well fitted inhibition curve with a large enough effect; inconclusive means small, poorly fitted or top-dose-only effect; inactive means no such curve, though single readings can be large or run the other way. The list shows a part of the results.

What follows are compounds tested against Rap guanine nucleotide exchange factor 3 (Homo sapiens) (UniProt O95398) (assay: Validation qHTS for antagonist of cAMP-regulated guanine nucleotide exchange factor 3 (EPAC1)). Conditions: EPAC1 Rap1B-BODIPY-GDP exchange, fluorescence; activity change, negative = inhibition: at the top concentration.
Sequence of UniProt O95398 (O95398 whole entry, looked up): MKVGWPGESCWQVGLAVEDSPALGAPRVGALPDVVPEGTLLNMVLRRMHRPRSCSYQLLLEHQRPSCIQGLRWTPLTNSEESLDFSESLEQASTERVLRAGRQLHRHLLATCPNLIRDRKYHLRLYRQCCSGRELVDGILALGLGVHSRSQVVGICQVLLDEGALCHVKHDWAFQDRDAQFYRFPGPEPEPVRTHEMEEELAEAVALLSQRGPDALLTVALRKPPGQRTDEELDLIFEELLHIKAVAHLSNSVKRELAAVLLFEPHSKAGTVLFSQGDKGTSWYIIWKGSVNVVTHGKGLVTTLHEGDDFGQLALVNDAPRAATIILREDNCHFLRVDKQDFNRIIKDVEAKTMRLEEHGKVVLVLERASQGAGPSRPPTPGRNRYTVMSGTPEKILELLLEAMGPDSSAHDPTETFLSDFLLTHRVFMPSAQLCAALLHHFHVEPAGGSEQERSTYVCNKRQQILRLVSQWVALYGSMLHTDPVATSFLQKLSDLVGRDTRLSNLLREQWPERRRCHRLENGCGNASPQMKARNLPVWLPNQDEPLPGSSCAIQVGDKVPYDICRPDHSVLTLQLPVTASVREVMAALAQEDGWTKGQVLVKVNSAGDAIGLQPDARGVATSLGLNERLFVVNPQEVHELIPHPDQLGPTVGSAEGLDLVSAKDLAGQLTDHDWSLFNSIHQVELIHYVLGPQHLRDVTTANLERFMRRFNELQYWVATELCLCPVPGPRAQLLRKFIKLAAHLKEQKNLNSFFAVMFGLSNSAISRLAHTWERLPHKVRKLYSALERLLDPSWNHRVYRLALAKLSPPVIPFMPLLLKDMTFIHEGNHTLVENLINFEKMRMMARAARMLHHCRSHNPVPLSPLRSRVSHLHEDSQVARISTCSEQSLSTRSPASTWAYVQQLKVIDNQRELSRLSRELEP
How it was run: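 EPAC1 (100 nM) mixed with 250 nM RAP1B-BODIPY-GDP and 50 uM GDP; compounds in concentration series, 5 min at room temperature. Fluorescence (ex 480/em 540 nm) read every 5 min for 30 min; normalized to ATA control and DMSO.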
Further: nearly all actives have a fitted effect of over 75% in size.

SMILES | activity change, negative = inhibition
C[C@@H]1CN(C2CCC(C#N)(c3ccc(F)cc3)CC2)CC[C@]1(C(=O)O)c1ccccc1 (stereo not given in full) | inactive: 16.6% [at 75.8 µM]
Clc1ccc(COC(Cn2ccnc2)c2ccc(Cl)cc2Cl)c(Cl)c1 (stereo not given) | inactive
CN1C2CCC1CC(OC(=O)C1CCC(C(=O)OC3CC4CCC(C3)N4C)(c3ccccc3)c3ccccc31)C2 (stereo not given) | inactive: 17.6%
NCC(N)C(=O)c1ccccc1 (stereo not given) | inactive: 20.8%
CC(=O)OC1CC[C@@]2(C)C3CC[C@]4(C)C(=O)CCC4C3CC[C@H]2C1 (stereo not given in full) | inactive: -6.77%
c1ccc2sc(SNC3CCCCC3)nc2c1 | inactive: 3.51%
O=C(Nc1cccc(F)c1)N1CC[C@@]2(CCCN(C(=O)Oc3ccccc3)C2)C1 | inactive: 6.78%
CC(C)(C)[C@]1(O)C[C@@H]2OC(=O)C[C@@]23C(=O)O[C@@H]2OC(=O)[C@H](O)[C@]213 | inactive: 12.3%
O=C(NC(=O)c1c(F)cccc1F)Nc1ccc(Cl)c(Oc2ncc(C(F)(F)F)cc2Cl)c1 | inactive: 15.1%
CC(=O)OC1C2CCC3C1(CC(O)[C@@]1(O)[C@@H](CC(O)C1(C)C)[C@]3(C)O)C[C@@]2(C)O (stereo not given in full) | inactive: 2.53%
Ic1cncc(OC[C@@H]2CCN2)c1 | inactive: 2.38%
COc1ccc(OC)c(C(O)C(C)N)c1 (stereo not given) | inactive: 2.9% [at 75.8 µM]
COC(=O)C1=CO[C@@H](C)[C@@H]2CN3CC[C@]4(C(=O)Nc5c4ccc(OC)c5OC)[C@H]3C[C@H]12 | inactive: -6%
CCC(=O)O[C@H]1CC[C@H]2[C@@H]3CCC4=CC(=O)CC[C@]4(C)[C@H]3CC[C@]12C | inactive: -3.14% [at 75.8 µM]
COc1cccc([C@@]2(O)CCCC[C@@H]2CN(C)C)c1 | inactive: 11.4%
COC(=O)[C@@H]1[C@H]2CC[C@@H](C[C@H]1OC(=O)c1ccccc1)N2C | inactive: 10%
C[C@]12CCC3C(CC[C@H]4C[C@H](O)CC[C@]34C)C1CC[C@@H]2C(=O)CO (stereo not given in full) | inactive: 13.6% [at 75.8 µM]
CNC(=O)N(C)c1nnc(C(C)(C)C)s1 | inactive: -7.67%
CO[C@]12CC[C@@]3(C[C@@H]1[C@](C)(O)C(C)(C)C)[C@@H]1Cc4ccc(O)c5c4[C@@]3(CCN1CC1CC1)[C@H]2O5 | inactive: -11.3% [at 320 µM]
C=C1C([C@@H](O)C[C@H](C)C2O[C@@]3(CCCCO3)CC[C@H]2C)OC2CC[C@@]3(CC[C@@H](/C=C/[C@@H](C)C4CC(C)=C[C@]5(O4)O[C@H](C[C@@](C)(O)C(=O)O)CCC5O)O3)OC2[C@@H]1O (stereo not given in full) | inactive: 25.4% [at 7.83 µM]
CN1CC[C@@]2(CCCN(C(=O)c3ccco3)C2)C1 | inactive: 15.8%
C=CCN1C[C@H](C)N([C@@H](c2ccccc2)c2ccc(C(=O)N(CC)CC)cc2)C[C@H]1C | inactive: 3.7%

SMILES | activity change, negative = inhibition
C=CCC1([C@H](C)CCC)C(=O)NC(=O)NC1=O | inactive: 24.4% [at 320 µM]
O=[N+]([O-])c1ccc(O)c([N+](=O)[O-])c1 | inactive: 5.37%
CN1CCCC2(CCN(C(=O)c3csnn3)CC2)C1 | inactive: 13.4%
COC1=C[C@]23CCCN2CCc2cc4c(cc2[C@@H]3[C@@H]1O)OCO4 | inactive: -4.13%
O[C@@H](Cc1ccncc1)C(Cl)(Cl)Cl | inactive: 1.31%
CC(=O)OC1CC2C(C)(C)C(=O)C=C[C@]2(C)C2CC[C@]3(C)C(=CC(=O)OC3c3ccoc3)[C@]12C (stereo not given in full) | inactive: -26.3%
CN1CCN(c2ccc3ccccc3n2)CC1 | inactive
CCn1cnc2c(Nc3cccc(Cl)c3)nc(N[C@@H]3CCCC[C@@H]3N)nc21 | inactive: -5.17% [at 75.8 µM]
CN1[C@@H]2CC[C@H]1CC(OC(c1ccc(F)cc1)c1ccc(F)cc1)C2 (stereo not given in full) | inactive: -3.41%
C=CC1CN2CCC1CC2C(O)c1ccnc2ccccc12 (stereo not given) | inactive
C[C@H]1CCCC=CC2C[C@H](O)C[C@@H]2[C@H](O)C=CC(=O)O1 (stereo not given in full) | inactive: 17.8%
O=S1(=O)N(CCN2CC=C(c3c[nH]c4cc(F)ccc34)CC2)c2cccc3c2N1CCC3 | inactive: -1.24% [at 75.8 µM]
NC[C@H](CS(=O)(=O)O)c1ccc(Cl)cc1 | inactive: -1.07%
N#CC(C#N)=Cc1ccc([N+](=O)[O-])c(O)c1 | inactive
O=C(CCCN1CCC2(CC1)C(=O)N(Cc1cccc(F)c1)CN2c1ccccc1)c1ccc(F)cc1 | inactive
c1ccc2c(c1)[nH]c1cnccc12 | inactive: -8.13%
c1cc2c(c(NC3=NCCN3)c1)CCCC2 | inactive: 25.4%
CN1CCCC2(CCN(C(=O)c3ccncc3)CC2)C1 | inactive: 13.9%
CS(=O)(=O)N1CCC2(CC1)CN(Cc1ccncc1)C2 | inactive: 13.1%
NC(=NCCCC(N)C(=O)O)N[N+](=O)[O-] (stereo not given) | inactive: 8.24%
CNC(=O)Oc1ccccc1C(=O)Nc1ccccc1 | inactive: 10.1%
NCCc1c[nH]c2ccc(C(N)=O)cc12 | inactive

SMILES | activity change, negative = inhibition
COP(=S)(OC)Oc1cc(Cl)c(Cl)cc1Cl | inactive
COc1cc2occc2c2oc(=O)ccc12 | inactive
C[C@@]12CCC3C(CCC4=CC(=O)CC[C@]43C)C1CCC2O (stereo not given in full) | inactive: -9.11%
CC1=C2C3OC(=O)C(C)C3CC[C@@]2(C)C=CC1=O (stereo not given in full) | inactive: 17.7%
Oc1ccc2c3c1O[C@H]1c4oc5ccccc5c4C[C@]4(O)[C@H](C2)N(CC2CC2)CC[C@@]314 | inactive: -3.94%
CN1C(=O)C(O)N=C(c2ccccc2)c2cc(Cl)ccc21 (stereo not given) | inactive: 1.83%
O=S(=O)(O)C(F)(F)C(F)(F)C(F)(F)C(F)(F)F | inactive: 30.7% [at 320 µM]
O=C(NC1CCCCC1)[C@@H]1CC=C[C@@H]2CCN(Cc3ccccc3)C(=O)[C@@H]21 | inactive: 0.643%
Cc1ccc(C(=O)CN2CCOCC2)cc1 | inactive: 19.5%
COc1ccc(C2Oc3c(I)c(OC)cc(OC)c3CC2O)cc1OC (stereo not given) | inactive: -22.1%
CCOC(=O)[C@]12Cc3cc(OC)c(OC)cc3[C@H]1N(Cc1ccccc1)C(=O)c1ccccc12 | inactive: 4.48%
CCCCCCCCC(=O)NCc1ccc(O)c(OC)c1 | inactive
C=C1[C@@H](O)C2C=CC[C@H](C)C(=O)[C@@](C)(O)C=C[C@@H](OC(C)=O)[C@@]23C(=O)N[C@H](Cc2ccccc2)[C@@H]3[C@@H]1C (stereo not given in full) | inactive: 5.38%
CN[C@@H](Cc1c[nH]c2ccccc12)C(=O)O | inactive: 11.7%
CCOP(=O)(NC(C)C)Oc1ccc(SC)c(C)c1 (stereo not given) | inactive: 19% [at 320 µM]
CC1OC(C)OC(C)O1 (stereo not given) | inactive
S=C(SSC(=S)N1CCCCC1)N1CCCCC1 | inactive: -7.93%
CCCCCCCCCC[N+](C)(C)CCCCCCCCCC | inactive: -7.1%
Nc1ccc([As](=O)(O)O)cc1 | inactive: 6.51%
C[C@]12CC[C@H]3[C@@H](CCC4=C(O)C(=O)CC[C@@H]43)[C@@H]1CC[C@@H]2OC(=O)CCC1CCCC1 | inactive: 15.7%
COc1ccc(/C=C/c2cc(O)cc(O)c2)cc1 | inactive: 7.47%
